Measured values taken from PMC4336329 (PLoS ONE, 2015).
The whole screen tested about 310,000 compounds, of which about 14,000 (4.5%) showed an effect of 50% or more. The effect is printed as a negative number. The list shows a part of the results.

molecular target: human ether-à-go-go-related gene (hERG) potassium channel (human, UniProt Q12809); assay: primary screen, population patch clamp on CHO cells stably expressing hERG
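Note: peak tail current of the secondary pulse compared with the same well before compound.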

Sequence of human ether-à-go-go-related gene (hERG) potassium channel (Q12809 whole entry, looked up): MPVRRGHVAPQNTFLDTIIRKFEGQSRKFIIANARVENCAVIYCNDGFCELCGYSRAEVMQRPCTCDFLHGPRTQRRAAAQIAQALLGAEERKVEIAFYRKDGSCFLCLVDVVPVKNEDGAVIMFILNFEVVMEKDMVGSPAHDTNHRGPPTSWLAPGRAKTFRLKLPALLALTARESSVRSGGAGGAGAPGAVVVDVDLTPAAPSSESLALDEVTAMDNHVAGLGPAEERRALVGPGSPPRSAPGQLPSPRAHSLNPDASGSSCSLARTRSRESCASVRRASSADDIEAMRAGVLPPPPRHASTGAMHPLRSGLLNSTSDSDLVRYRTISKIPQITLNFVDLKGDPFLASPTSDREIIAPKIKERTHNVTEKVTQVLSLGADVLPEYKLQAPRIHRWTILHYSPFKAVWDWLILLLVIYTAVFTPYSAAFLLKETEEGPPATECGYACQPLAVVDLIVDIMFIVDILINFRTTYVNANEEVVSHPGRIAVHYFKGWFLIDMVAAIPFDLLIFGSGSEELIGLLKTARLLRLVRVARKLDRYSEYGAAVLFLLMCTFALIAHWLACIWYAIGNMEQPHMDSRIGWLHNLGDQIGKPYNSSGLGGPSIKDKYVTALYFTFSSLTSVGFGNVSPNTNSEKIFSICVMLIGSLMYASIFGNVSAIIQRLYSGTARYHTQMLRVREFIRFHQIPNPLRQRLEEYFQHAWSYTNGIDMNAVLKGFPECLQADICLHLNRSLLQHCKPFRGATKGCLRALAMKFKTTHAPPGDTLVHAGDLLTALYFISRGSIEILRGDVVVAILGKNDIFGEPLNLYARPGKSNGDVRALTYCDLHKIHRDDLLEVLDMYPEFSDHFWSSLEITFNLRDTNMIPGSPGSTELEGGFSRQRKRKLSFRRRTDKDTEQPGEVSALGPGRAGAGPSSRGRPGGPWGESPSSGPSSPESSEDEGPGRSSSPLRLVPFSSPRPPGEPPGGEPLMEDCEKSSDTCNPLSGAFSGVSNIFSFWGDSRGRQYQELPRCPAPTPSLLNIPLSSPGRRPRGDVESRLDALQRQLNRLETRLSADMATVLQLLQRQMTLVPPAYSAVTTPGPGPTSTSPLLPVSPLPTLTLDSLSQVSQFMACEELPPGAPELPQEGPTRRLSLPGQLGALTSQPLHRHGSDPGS

SMILES	hERG current change (%, negative = inhibition) at 10uM [%]
CCn1c(SCC(=O)N2c3ccccc3CC2C)nnc1-c1ccco1 (stereo not drawn)	-17.6
COc1cc(/C=N/NC(=O)c2cc(C3CC3)[nH]n2)ccc1O	-12.7
CCOc1ccccc1C1CC(=O)Nc2cc(OC)c(OC)cc21 (stereo not drawn)	13.2
CC12CC(NC(=O)N1c1cccc(C(=O)Nc3ncn[nH]3)c1)c1ccccc1O2 (stereo not drawn)	-21.1
Cc1ccc(C(=O)N2C(CC(=O)Nc3ccc(Cl)cc3)C(=O)NC3CCCCC32)cc1 (stereo not drawn)	-12.3
CCC(=O)N1CCc2cc(Br)cc(S(=O)(=O)NCCCN(CC)Cc3ccccc3)c21	-27.9
Cc1cccc(-n2c(C)nc3ccccc3c2=O)c1C	1.23
COc1ccc(C(=O)Nc2ccc(C(=O)NCCc3ccc(OC)c(OC)c3)cc2)cc1	30.5
CCn1c(COc2ccc(Cl)cc2)nnc1SCc1nc2ccccc2[nH]1	-17.7
O=S(=O)(c1ccccc1)c1nc(-c2cccs2)oc1NCC1CCCO1 (stereo not drawn)	-21.1
CN(C)c1cccc(C(=O)N2CCCC(CCC(=O)NCc3ccccc3F)C2)c1 (stereo not drawn)	-2.15
COC(=O)COc1ccc(Cl)cc1C1Nc2ccccc2C(=O)N1c1ccc(OC)cc1 (stereo not drawn)	-16.9
COc1ccc(NC(=O)CCC(=O)N/N=C/c2cccnc2)cc1	16.7
CCOc1ccc(NC(=O)C2CCN(S(=O)(=O)c3ccc4c(c3)CC(C)N4C(C)=O)CC2)cc1 (stereo not drawn)	19.5
C/C(=N\NC(=O)c1nnn(-c2nonc2N)c1-c1cccs1)c1cccc(O)c1	-11.6
CC1=C(C(=O)NC2CC(C)(C)Cc3c2cnn3-c2ccc(C)cc2)OCCO1 (stereo not drawn)	3.64
O=C(/C=C/c1ccc(O)c(O)c1)NC(=O)c1ccccc1O	6.74
NS(=O)(=O)c1ccc(N=Cc2ccc(Br)s2)cc1	8.93
Cc1ccc(-n2nc3ccc(NC(=S)NC(=O)/C=C/c4ccco4)cc3n2)cc1	7.85
CC(=O)N1c2ccc(S(=O)(=O)NCCc3ccc(Cl)cc3)cc2CC1C (stereo not drawn)	-18.6
C[C@@H]1CCC2[C@](C)(CO)[C@@H](O)CC[C@]2(C)[C@@]12CC[C@@](CO)(CC(=O)[O-])O2.[Na+] (stereo partly drawn)	20.3
CCC(C(=O)NC(C)(C)C)N(C(=O)c1ccc(Cl)nc1)C1CCCC1 (stereo not drawn)	9.74

SMILES	hERG current change (%, negative = inhibition) at 10uM [%]
Cc1ccc(Oc2cc(N3CCOCC3)nc(-c3ccccc3)n2)cc1	5.63
CCCCOc1ccc2ccccc2c1C=O	8.47
CCCCC(c1nnnn1CS(=O)(=O)c1ccc(C)cc1)N1CCN(C)CC1.Cl (stereo not drawn)	3.52
Cc1cccn2c(=O)c(/C=C(\C#N)S(=O)(=O)c3ccccc3)c(N3CCC(C(N)=O)CC3)nc12	-75.4
COc1cccc(/C=C/C(=O)NCC2CCCCC2)c1	2.66
COC(=O)CCCC1=CC2=CC(=O)C(C)(OC(=O)c3cccs3)C(=O)C2=CN1C1CC1 (stereo not drawn)	10.5
O=C(NC1CCCCC1)C(c1ccco1)N(C(=O)c1csnn1)c1ccccc1 (stereo not drawn)	0.857
CN(C)S(=O)(=O)N1CCC(CO)(CCc2ccccc2)CC1	-8.86
COc1cc2c(cc1OC)C(C)N(C(=O)c1cc(Cl)nc(Cl)c1)CC2 (stereo not drawn)	-4.17
O=C(Nc1ccc(F)cc1)c1ccc(Br)c(S(=O)(=O)N2CCOCC2)c1	-58.8
CC(=O)Nc1cccc(NC(=O)CCn2c(=O)sc3ccccc32)c1	29.2
Cc1ccc(OCC(=O)NNC(=O)CCC(=O)Nc2ccc(C)cc2C)cc1	19.7
CC(=O)c1cccc(NC(=O)CCc2nnc3ccc(NCc4ccc5c(c4)OCO5)nn23)c1	26.7
Cc1nnc(-c2cnn(-c3ccccc3)c2N)n1Cc1ccncc1	-1.74
CC(=O)c1ccc(NC(=O)CN2C(=O)CCC2=O)cc1	-19.8
CCCCn1c(N)c(N(CCOC)C(=O)COC(=O)COc2cccc(C(C)=O)c2)c(=O)[nH]c1=O	13.7
COC(=O)c1cn(-c2ccccc2)c(C)c1C(=O)OC	6.91
COc1ccc(C(=O)NC(=S)NNC(=O)c2cccnc2)cc1	14
CCOc1ccc(OCCSc2nc3ccccc3c(=O)[nH]2)cc1	16.3
COc1ccccc1-c1nnc(SC)n1C	36.9
COc1ccccc1C(=O)COC(=O)c1cccc(-n2cnnn2)c1	-12.3
CSc1nc2cc(C)nn2c(-c2ccc(C(C)(C)C)cc2)c1C#N	10.5

SMILES	hERG current change (%, negative = inhibition) at 10uM [%]
Cc1ccc(CN2CCN(C)CC2)c(C)c1	-4.78
CC12c3ccccc3C(c3ccccc31)C1C(=O)N(Cc3cccnc3)C(=O)C12 (stereo not drawn)	-21.2
Cc1cccc(C)c1NC(=O)C(NC=O)c1ccc(N(C)C)cc1 (stereo not drawn)	-11.1
CCOC(=O)/C(C#N)=C1/C=CN(Cc2ccccc2)C=N1	-35
C=CCOC(=O)C1=C[C@H](c2coc3ccccc3c2=O)[C@@H](CCCO)[C@H](OCC)O1	-12.8
NS(=O)(=O)c1cccc(NC(=O)c2ccccc2NS(=O)(=O)c2ccc(F)cc2)c1	-0.775
CC1CCCC(NC(=O)Cc2ccc(Br)cc2)C1C (stereo not drawn)	8.51
COC(=O)c1cc(C(=O)Nc2ccc(S(N)(=O)=O)cc2)cc([N+](=O)[O-])c1	15.7
Cl.FC(F)(F)c1cc(-c2ccco2)nc(N2CCN(Cc3ccccc3)CC2)n1	2.47
COc1cc(/C=C/C(=O)Nc2ccc3nc4n(c(=O)c3c2)CCCC4)cc(OC)c1OC	0.353
CC(C)(C)C(=O)N1CCn2c1nc1ccccc12	7.28
COc1ccc(S(=O)(=O)N2CCN(CC(=O)NCCc3cccs3)CC2)cc1	-36
CCN(CC(=O)Nc1ccccc1C(F)(F)F)C(=O)CCc1nc2sc3c(c2c(=O)[nH]1)CCCC3	0.77
Cc1c(Cl)c(C(=O)NNC(=S)Nc2ccccc2)nn1C	-0.932
CCc1ccc(CNC(=O)CCn2nc(C)c3c(C)n(-c4ccccc4)nc3c2=O)cc1	6.51
Cc1ccc(CSc2nnc3ccc(-c4ccncc4)nn23)cc1	-42.4
O=C(Cc1cccc2ccccc12)Nc1ccc(Br)cc1C(=O)O	16.2
Cc1ccc(CCC(=O)Nc2nccs2)o1	9.24
CCOC(=O)C1(Cc2cccc(OC)c2)CCN(C/C=C/c2ccc(OC)cc2)CC1	-72.3
O=C(OCc1nc2ccccc2[nH]1)C12CC3CC(CC(C3)C1)C2	-19.2
Nc1nc(SCC(=O)OCc2ccccc2)[nH]c(=O)c1NC(=O)c1ccco1	-5.67
Cc1ccccc1CC(=O)Nc1ccc(S(=O)(=O)N2CCOCC2)cc1	7.15

SMILES	hERG current change (%, negative = inhibition) at 10uM [%]
COc1ccc(/C=C/C(=O)NCC(=O)N/N=C(/C)c2ccco2)cc1	2.56
Cc1cc(-c2cccs2)c2c(n1)sc1c(=O)[nH]c(=O)[nH]c12	5.3
O=C(NNc1ccccc1[N+](=O)[O-])Nc1ccc(F)cc1	-11.3
CC(C)C(=O)NC(=S)Nc1ccc(S(=O)(=O)Nc2nccs2)cc1	16
COc1cc(C)c2c(c1C=O)Oc1c(c(C)c(O)c3c1C(O)OC3=O)OC2=O (stereo not drawn)	19.4
O=C(CSc1ncn[nH]1)c1ccc(OC(F)F)cc1	4.02
Cc1cc(C)n2nc(SC(C)C(=O)N3CCC4(CC3)OCCO4)nc2n1 (stereo not drawn)	-0.197
Cc1ncc(C(=O)O)c(C(=O)O)c1N	13.4
Cn1c(NC(=O)c2ccc(Cl)cc2)c(-c2ccccn2)c(=O)c2ccccc21	-5.96
COc1ccc(C(=O)/C=C/C(=O)N(CC(=O)NC2CCCCC2)CC2CCCO2)c(O)c1 (stereo not drawn)	12.5
Cc1cc(S(=O)(=O)NCc2ccc3c(c2)OCO3)ccc1F	-20.8
COc1ccc(C2c3c(nc[nH]c3=O)Oc3nc[nH]c(=O)c32)cc1	1.92
Cc1ccccc1C(=O)Nc1ccnn1C1CCN(C(=O)c2cnsn2)CC1	-30.4
CC(=O)c1ccc(NC(=O)c2ccc(NC(=O)c3ccco3)cc2)cc1	21.6
Cn1c(C(=O)N2CCN(c3ccc(Cl)cc3)CC2)cc2c(=O)[nH]c3ccccc3c21	-114
COc1ccc(CNc2nccs2)cc1	6.49
CCN(CC)c1ccc(C=C(c2nnnn2-c2ccc(C)cc2)c2nnnn2-c2ccc(C)cc2)cc1	11.4
FC(F)(F)Sc1ccc(NC(=S)NCc2ccccc2)cc1	11
CCN(CCNC(=O)CC1Oc2ccccc2NC1=O)c1ccccc1 (stereo not drawn)	9.82
CCC(C)NC(=S)N1CCN(Cc2ccccc2)CC1 (stereo not drawn)	3.92
O=C(c1ccc(Cl)c([N+](=O)[O-])c1)N(c1ccccn1)c1ccccn1	-19.6
